Patent US20250214977A1, “STAT6 INHIBITORS AND USES THEREOF” (Kymera Therapeutics, Inc., priority 2024, published 2025)

Target: T1, biotinylated truncated STAT6 (123-632)-avi (Homo sapiens, UniProt P42226)
T1 sequence (P42226 123-632 limits assumed): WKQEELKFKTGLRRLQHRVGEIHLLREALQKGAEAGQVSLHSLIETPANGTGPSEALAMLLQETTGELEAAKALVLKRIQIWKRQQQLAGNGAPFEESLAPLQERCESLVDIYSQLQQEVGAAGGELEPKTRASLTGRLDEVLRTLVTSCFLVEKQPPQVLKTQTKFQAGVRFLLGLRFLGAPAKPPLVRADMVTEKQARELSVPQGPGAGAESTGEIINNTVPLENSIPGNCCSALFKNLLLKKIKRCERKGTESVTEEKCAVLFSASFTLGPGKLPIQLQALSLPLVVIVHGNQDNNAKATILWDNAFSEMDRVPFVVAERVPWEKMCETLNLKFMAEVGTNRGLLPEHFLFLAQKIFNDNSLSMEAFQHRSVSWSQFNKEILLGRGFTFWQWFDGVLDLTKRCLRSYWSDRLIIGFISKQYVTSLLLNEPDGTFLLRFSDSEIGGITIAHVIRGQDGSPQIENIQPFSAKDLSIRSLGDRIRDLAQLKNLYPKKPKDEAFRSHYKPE
Assay: Homogenous Time-Resolved Fluorescence (HTRF) binding assay
Conditions: 0.15 nM biotinylated truncated STAT6 (123-632)-avi, 20 nM fluorescein-labeled probe

CN(C)C(=O)c1cc2cc(C3=CCCN(C(=O)CCn4ccnn4)C3)cc(NCC3CC(F)(F)C3)c2o1 [Example I-873]
IC50 (30 minutes at room temperature): < 0.1 µM

CC(=O)N1CCC=C(c2cc(-c3ccc(C)cc3O)c3cc(C(=O)N(C)C)[nH]c3c2F)C1 [Example I-886]
IC50 (30 minutes at room temperature): 0.1 to 1 µM

COc1cccnc1N1CCN(C(=O)c2cc3ccc(C4=CCCN(C(C)=O)C4)c(F)c3[nH]2)CC1 [Example I-902]
IC50 (30 minutes at room temperature): 1 to 10 µM

COc1ccccc1-c1cc(C2=CCCN(C(=O)CCn3ccnn3)C2)c(F)c2[nH]c(C(=O)N3CCN(c4cc(O)cc5ccccc45)CC3)cc12 [Example I-930]
IC50 (30 minutes at room temperature): 0.1 to 1 µM

COc1ccccc1-c1cc(C2=CCCN(C(=O)CCn3ccnn3)C2)c(F)c2[nH]c(C(=O)N3CCN(c4cn(C)c(=O)n(C)c4=O)CC3)cc12 [Example I-949]
IC50 (30 minutes at room temperature): < 0.1 µM

COc1ccccc1-c1cc(C2=CCCN(C(=O)CCn3ccnn3)C2)c(F)c2[nH]c(C(=O)N3CCN(c4ccc5ccccc5c4OC)CC3)cc12 [Example I-956]
IC50 (30 minutes at room temperature): 1 to 10 µM

COc1ccccc1-c1cc(C2=CCCN(C(=O)CCn3ccnn3)C2)c(F)c2[nH]c(C(=O)N(C)CCc3ccccn3)cc12 [Example I-986]
IC50 (30 minutes at room temperature): < 0.1 µM

CCCN1CCN(C(=O)c2cc3c(-c4ccccc4OC)cc(C4=CCCN(C(=O)CCn5ccnn5)C4)c(F)c3[nH]2)C[C@@H]1C [Example I-997]
IC50 (30 minutes at room temperature): < 0.1 µM

COc1ccccc1-c1cc(C2=CCCN(C(=O)CCn3ccnn3)C2)c(F)c2[nH]c(C(=O)N3CCO[C@H](C)C3)cc12 [Example I-1007]
IC50 (30 minutes at room temperature): < 0.1 µM

COc1ccccc1-c1cc(C2=CCCN(C(=O)CCn3ccnn3)C2)c(F)c2[nH]c(C(=O)N3CCN(c4cccc(=O)n4C)CC3)cc12 [Example I-1020]
IC50 (30 minutes at room temperature): < 0.1 µM

COc1ccccc1-c1cc(C2=CCCN(C(=O)CCn3ccnn3)C2)c(F)c2[nH]c(C(=O)N3CCN(c4ccnn4C)CC3)cc12 [Example I-1025]
IC50 (30 minutes at room temperature): < 0.1 µM

COc1ccccc1-c1cc(C2=CCCN(C(=O)CCn3ccnn3)C2)c(F)c2[nH]c(C(=O)Nc3cccn(C)c3=O)cc12 [Example I-1027]
IC50 (30 minutes at room temperature): 0.1 to 1 µM

COC(=O)c1cnn(-c2cc(C3=CCCN(C(=O)CCn4ccnn4)C3)cc3cc(C(=O)N(C)C)oc23)c1 [Example I-1049]
IC50 (30 minutes at room temperature): 0.1 to 1 µM

COc1ccc(C)cc1-c1cc(C2=CCCN(C(=O)CCn3ccnn3)C2)cc2[nH]c(C(=O)N(C)C)cc12 [Example I-1057]
IC50 (30 minutes at room temperature): < 0.1 µM

COc1cc(C)c(-c2cc(C3=CCCN(C(=O)CCn4ccnn4)C3)cc3cc(C(=O)N(C)C)oc23)cc1C [Example I-1078]
IC50 (30 minutes at room temperature): < 0.1 µM

Cc1cc(F)ccc1-c1cc(C2=CCCN(C(=O)CCn3ccnn3)C2)cc2cc(C(=O)N(C)C)oc12 [Example I-1083]
IC50 (30 minutes at room temperature): < 0.1 µM

COc1cncc(C)c1-c1cc(C2=CCCN(C(=O)CCn3ccnn3)C2)cc2cc(C(=O)N(C)C)oc12 [Example I-1090]
IC50 (30 minutes at room temperature): < 0.1 µM

CC(=O)N1CCC=C(c2cc(-c3cncc4ccccc34)c3cc(C(=O)N(C)C)[nH]c3c2F)C1 [Example I-1098]
IC50 (30 minutes at room temperature): < 0.1 µM

COc1cc(F)cnc1N1CCN(C(=O)c2cc3c(C4=CC(=O)CC4)cc(C4=CCCN(C(=O)CCn5ccnn5)C4)c(F)c3[nH]2)CC1 [Example I-1116]
IC50 (30 minutes at room temperature): < 0.1 µM

CCOCc1cc(-c2cc(C3=CCCN(C(=O)CCn4ccnn4)C3)c(F)c3[nH]c(C(=O)N4CCN(c5ncc(F)cc5OC)CC4)cc23)ccc1F [Example I-1128]
IC50 (30 minutes at room temperature): < 0.1 µM

COc1cc(F)cnc1N1CCN(C(=O)c2cc3c(C4=CCC5(CC4)CC5)cc(C4=CCCN(C(=O)CCn5ccnn5)C4)c(F)c3[nH]2)CC1 [Example I-1159]
IC50 (30 minutes at room temperature): 0.1 to 1 µM

COc1cc(F)cnc1N1CCN(C(=O)c2cc3c(-c4ccc(OC5CCCCO5)cc4)cc(C4=CCCN(C(=O)CCn5ccnn5)C4)c(F)c3[nH]2)CC1 (centres unmarked) [Example I-1166]
IC50 (30 minutes at room temperature): < 0.1 µM

COc1ccccc1-c1cc(C2=CCCN(C(=O)CCn3ccnn3)C2)c(F)c2[nH]c(C(=O)N3CCN(Cc4c(C)nn(C)c4C)CC3)cc12 [Example I-1182]
IC50 (30 minutes at room temperature): < 0.1 µM

COc1ccncc1-c1cc(C(=O)N2CCN(c3ncc(F)cc3OC)CC2)cc2cc(C3CCCN(C(=O)CCn4ccnn4)C3)[nH]c12 (centres unmarked) [Example I-1203]
IC50 (30 minutes at room temperature): 1 to 10 µM

CCc1nc(C)ccc1-c1cc(C(=O)N2Cc3cnn(C)c3C2)cc2sc(C3=CCCN(C(=O)CCn4ccnn4)C3)cc12 [Example I-1212]
IC50 (30 minutes at room temperature): < 0.1 µM

CCc1nc(C)ccc1-c1cc(C(=O)N2CCN(c3ncc(F)cc3OC)CC2)cc2cc(C3=CCCN(C(C)=O)C3)n(CC3CCN(C)C3)c12 (centres unmarked) [Example I-1221]
IC50 (30 minutes room temperature): < 0.1 µM

CN(C)C(=O)c1cc2ccc(C3CCCC(C(=O)Nc4cccc(C(N)=O)c4)C3)c(F)c2[nH]1 (centres unmarked) [Example I-1248]
IC50 (30 minutes room temperature): 1 to 10 µM

CN(C)C(=O)c1cc2ccc(C3=CCCN(C(=O)CCc4nc(C(N)=O)cs4)C3)c(F)c2[nH]1 [Example I-1250]
IC50 (30 minutes room temperature): < 0.1 µM

O=C(CCn1ccnn1)N1CCC=C(c2ccc3oc(-c4cnn(C5CC5)c4)cc3c2)C1 [Example I-1278]
IC50 (30 minutes room temperature): 10 to 100 µM

Cc1oncc1-c1cc2cc(C3=CCCN(C(=O)CCn4ccnn4)C3)ccc2o1 [Example I-1286]
IC50 (30 minutes room temperature): 10 to 100 µM

O=C(CCn1ccnn1)N1CCC=C(c2ccc3cc(-c4ccccn4)[nH]c3c2)C1 [Example I-1311]
IC50 (30 minutes room temperature): 10 to 100 µM

CNC1CCN(C(=O)c2cc3c(-c4ccccc4OC)cc(C4=CCCN(C(=O)CCn5ccnn5)C4)c(F)c3[nH]2)C1 (centres unmarked) [Example I-1359]
IC50 (30 minutes room temperature): 0.1 to 1 µM

COc1ccccc1-c1cc(C2=CCCN(C(=O)CCn3ccnn3)C2)c(F)c2[nH]c(C(=O)N3CCN(c4cnn(C)n4)CC3)cc12 [Example I-1362]
IC50 (30 minutes room temperature): < 0.1 µM

COc1ccccc1-c1cc(C2=CCCN(C(=O)CCn3ccnn3)C2)c(F)c2[nH]c(C(=O)N3CCN(c4ccn(C)c(=O)c4)CC3)cc12 [Example I-1369]
IC50 (30 minutes room temperature): < 0.1 µM

COc1ccccc1-c1cc(C2=CCCN(C(=O)CCn3ccnn3)C2)c(F)c2[nH]c(C(=O)N3CCN(c4cc(C)nc(C)c4)CC3)cc12 [Example I-1381]
IC50 (30 minutes room temperature): < 0.1 µM

COc1ccccc1-c1cc(C2=CCCN(C(=O)CCn3ccnn3)C2)c(F)c2[nH]c(C(=O)N3CCC(C)(O)CC3)cc12 [Example I-1415]
IC50 (30 minutes room temperature): < 0.1 µM

COc1ccccc1-c1cc(C2=CCCN(C(=O)CCn3ccnn3)C2)c(F)c2[nH]c(C(=O)N3CCN(c4ccc5ccncc5n4)CC3)cc12 [Example I-1445]
IC50 (30 minutes room temperature): < 0.1 µM

COc1cc2c(N3CCN(C(=O)c4cc5c(-c6ccccc6OC)cc(C6=CCCN(C(=O)CCn7ccnn7)C6)c(F)c5[nH]4)CC3)ccnc2cc1O [Example I-1449]
IC50 (30 minutes room temperature): < 0.1 µM

COc1ccccc1-c1cc(C2=CCCN(C(=O)CCn3ccnn3)C2)c(F)c2[nH]c(C(=O)N3CCN(c4ccc(-c5nc6ccccc6s5)cc4)CC3)cc12 [Example I-1464]
IC50 (30 minutes room temperature): 0.1 to 1 µM

COc1ccccc1-c1cc(C(=O)N(C)C)cc2sc(C3=CCCN(C(=O)CCc4nccs4)C3)nc12 [Example I-1477]
IC50 (30 minutes room temperature): < 0.1 µM

CC(=O)N1CCC=C(c2cc(-c3cc(C)c(C)cc3C)c3cc(C(=O)N(C)C)[nH]c3c2F)C1 [Example I-1502]
IC50 (30 minutes room temperature): 0.1 to 1 µM

CC(=O)N1CCC=C(c2cc(-c3cnn(C)c3)c3cc(C(=O)N(C)C)[nH]c3c2F)C1 [Example I-1507]
IC50 (30 minutes room temperature): 0.1 to 1 µM

COc1ccccc1N1CCN(c2cc(C3=CCCN(C(=O)CCn4ccnn4)C3)cc3cc(C(=O)N(C)C)oc23)CC1 [Example I-1514]
IC50 (30 minutes room temperature): 0.1 to 1 µM

COc1ccccc1-c1cc(C2=CCCN(C(=O)CCn3ccnn3)C2)c(F)c2[nH]c(C(=O)N3CCCNC(=O)C3)cc12 [Example I-1519]
IC50 (30 minutes room temperature): < 0.1 µM

Cc1ccc(C2CCCN2C(=O)c2cc3cc(C4=CCCN(C(=O)CCn5ccnn5)C4)ccc3o2)cc1 (centres unmarked) [Example I-1611]
IC50 (30 minutes room temperature): 1 to 10 µM

CCN(C)C(=O)c1cc2c(-c3ccccc3OC)cc(C3=CCCN(C(=O)CCn4ccnn4)C3)c(F)c2[nH]1 [Example I-1622]
IC50 (30 minutes room temperature): < 0.1 µM

COc1ccccc1-c1cc(C2=CCCN(C(=O)CCn3ccnn3)C2)c(F)c2[nH]c(C(=O)N3CCCOCC3)cc12 [Example I-1623]
IC50 (30 minutes room temperature): < 0.1 µM

CN(C)C(=O)c1cc2c(Oc3ccccc3)cc(C3=CCCN(C(=O)CCn4ccnn4)C3)c(F)c2[nH]1 [Example I-1627]
IC50 (30 minutes room temperature): < 0.1 µM

CN(C)C(=O)c1cc2c(-c3ccncc3)cc(C3=CCCN(C(=O)CCn4ccnn4)C3)cc2[nH]1 [Example I-1676]
IC50 (30 minutes room temperature): < 0.1 µM

Cc1ccccc1-c1cc(C2=CCCN(C(=O)CCn3ccnn3)C2)cc2[nH]c(C(=O)N(C)C)cc12 [Example I-1680]
IC50 (30 minutes room temperature): < 0.1 µM
